In a compilation of properties of binary mixtures (doi:10.1021/acs.jpcb.8b02500):
The densities may have been worked out from excess volumes.

Assay: xn = mol fraction of the nth substance listed
Conditions: 100 kPa

Row | SMILES | mass density (298.15 K, x1 = 0.4) | mass density (298.15 K, x1 = 1) | mass density (308.15 K, x1 = 0.2) | mass density (308.15 K, x1 = 0.4) | mass density (308.15 K, x1 = 0.8) | mass density (308.15 K, x1 = 1) | mass density (318.15 K, x1 = 0.4) | mass density (318.15 K, x1 = 0.8) | mass density (318.15 K, x1 = 1) | mass density (328.15 K, x1 = 0.4) | mass density (338.15 K, x1 = 1) | mass density (348.15 K, x1 = 0.2) | mass density (348.15 K, x1 = 0.8) | mass density (348.15 K, x1 = 1) | further results
1 | CCCCCCCCCCCC[n+]1ccn(C)c1.O=S(=O)([N-]S(=O)(=O)C(F)(F)F)C(F)(F)F + OCCc1ccccc1 | 1177.5 kg/m3 | 1242.3 kg/m3 | 1118.3 kg/m3 | 1169.2 kg/m3 | 1219.1 kg/m3 | 1233.7 kg/m3 | 1160.9 kg/m3 | 1210.7 kg/m3 | 1225.2 kg/m3 | 1152.6 kg/m3 | 1208.3 kg/m3 | 1085.8 kg/m3 | 1185.6 kg/m3 | 1199.8 kg/m3 | mass density (298.15 K, x1 = 0.6): 1207 kg/m3; mass density (298.15 K, x1 = 0.8): 1227.7 kg/m3; mass density (308.15 K, x1 = 0.6): 1198.5 kg/m3; mass density (318.15 K, x1 = 0.2): 1110.2 kg/m3; mass density (318.15 K, x1 = 0.6): 1190.2 kg/m3; mass density (328.15 K, x1 = 0.2): 1102.2 kg/m3; mass density (328.15 K, x1 = 0.6): 1181.8 kg/m3; mass density (348.15 K, x1 = 0.4): 1136.1 kg/m3; mass density (348.15 K, x1 = 0.6): 1165.1 kg/m3
2 | OCCc1ccccc1 + CCCCCC[N+]1(C)CCCC1.O=S(=O)([N-]S(=O)(=O)C(F)(F)F)C(F)(F)F | – | – | – | – | – | – | – | – | – | – | – | – | – | – | mass density (298.15 K, x2 = 0): 1018 kg/m3; mass density (308.15 K, x2 = 0): 1010.1 kg/m3; mass density (318.15 K, x2 = 0): 1003 kg/m3; mass density (328.15 K, x2 = 0): 995.2 kg/m3; mass density (348.15 K, x2 = 0): 979.2 kg/m3
3 | CCCCCC[N+]1(C)CCCC1.O=S(=O)([N-]S(=O)(=O)C(F)(F)F)C(F)(F)F + OCCc1ccccc1 | 1229 kg/m3 | 1335.7 kg/m3 | 1145 kg/m3 | 1220.8 kg/m3 | 1302.5 kg/m3 | 1327 kg/m3 | 1212.6 kg/m3 | 1294 kg/m3 | 1318.5 kg/m3 | 1204.3 kg/m3 | 1301.5 kg/m3 | 1112.5 kg/m3 | 1268.9 kg/m3 | 1293.3 kg/m3 | mass density (298.15 K, x1 = 0.2): 1153.1 kg/m3; mass density (298.15 K, x1 = 0.6001): 1277.4 kg/m3; mass density (308.15 K, x1 = 0.6001): 1269 kg/m3; mass density (328.15 K, x1 = 0.6001): 1252.3 kg/m3; mass density (328.15 K, x1 = 0.8): 1285.6 kg/m3; mass density (338.15 K, x1 = 0.2): 1120.9 kg/m3; mass density (338.15 K, x1 = 0.6001): 1244 kg/m3; mass density (338.15 K, x1 = 0.8): 1277.3 kg/m3; mass density (348.15 K, x1 = 0.6001): 1235.7 kg/m3
